Among the data in PMC10575996 are binding values, retold here.

By UniProt entry, the sequences of proteins in these tests, tags left out. Where a name states a change or a piece, a line headed by the entry shows the natural chain unless it says otherwise. Residues count along the entry.
UniProt O95863: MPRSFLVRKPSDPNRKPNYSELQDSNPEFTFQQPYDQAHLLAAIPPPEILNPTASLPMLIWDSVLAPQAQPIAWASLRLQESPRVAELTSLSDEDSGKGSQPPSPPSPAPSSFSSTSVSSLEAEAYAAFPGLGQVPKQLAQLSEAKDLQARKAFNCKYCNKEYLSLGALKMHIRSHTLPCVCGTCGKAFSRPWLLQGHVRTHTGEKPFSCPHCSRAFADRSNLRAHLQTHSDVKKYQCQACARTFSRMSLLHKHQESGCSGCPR
HA-Snail1^C-term(152–264): residues 152-264 of O95863

Results are given in words; binding and its absence hold for the method and conditions named. Binding seen in cells or lysates may run through a third protein. Some entries that bind do so weakly or less than the wild type. For some assays here: Where a sequence is shown, tags or fusion partners need not be part of it.

In experiment [1] the target is HA-Snail1^C-term(152–264) (human) (UniProt O95863). The experiment in a line: co-IP; HEK-293 cells co-transfected with tagged plasmids, MG132 10 μM for 6 h; anti-HA or anti-Flag beads overnight; wash 20 mM Tris-HCl, 250 mM NaCl, 0.2 mM EGTA, 0.1% Nonidet P-40 (Fig. 4a, b, d).
Experiment [2] addresses HA-Snail1 (human) (UniProt O95863). The experiment can be described thus: co-IP; HCC1806 cells transfected with HA-Snail1 WT or K157R for 48 h, MG132 for 6 h; immunoprecipitation-western blot; complexes 'in the nucleolus' (Fig. 4f). A general note: Immunoblotting shows a protein as a band on a membrane.
For experiment [3], the target named is HA-Snail1^K157R (human) (UniProt O95863). The description is as above.
The target in experiment [4] is Snail1 (endogenous) (human (endogenous in HCC1806)) (UniProt O95863). The experiment in a line: co-IP; endogenous co-IP from lysate of purified nucleoli of HCC1806 cells; high salt RIPA buffer (50 mM Tris pH 7.5, 500 mM NaCl, 1% Nonidet P-40, 0.5% deoxycholate); primary antibody or normal IgG overnight at 4 °C, protein A/G beads.
Experiment [5] addresses HA-Snail1 (human) (UniProt O95863). The experiment can be described thus: co-IP; immunoprecipitation of Snail1 WT or 2KR with USP36 (Supplementary Fig. S2b); cells and beads not shown.
The target of experiment [6] is HA-Snail1^K146R/K206R (human) (UniProt O95863). The description is as above.
Experiment [7] addresses HA-Snail1 (human) (UniProt O95863). The experiment can be described thus: co-IP; immunoprecipitation of USP36 (WT or C131A) with Snail1, with or without the E1 inhibitor TAK-243 to block ubiquitination (Supplementary Fig. S2c); cells and beads not shown.

B1: Flag-USP36^N-term(1–423) (domain or fragment, UniProt Q9P275 1-423)
chain: MPIVDKLKEALKPGRKDSADDGELGKLLASSAKKVLLQKIEFEPASKSFSYQLEALKSKYVLLNPKTEGASRHKSGDDPPARRQGSEHTYESCGDGVPAPQKVLFPTERLSLRWERVFRVGAGLHNLGNTCFLNATIQCLTYTPPLANYLLSKEHARSCHQGSFCMLCVMQNHIVQAFANSGNAIKPVSFIRDLKKIARHFRFGNQEDAHEFLRYTIDAMQKACLNGCAKLDRQTQATTLVHQIFGGYLRSRVKCSVCKSVSDTYDPYLDVALEIRQAANIVRALELFVKADVLSGENAYMCAKCKKKVPASKRFTIHRTSNVLTLSLKRFANFSGGKITKDVGYPEFLNIRPYMSQNNGDPVMYGLYAVLVHSGYSCHAGHYYCYVKASNGQWYQMNDSLVHSSNVKVVLNQQAYVLFYLRI
As to B1, in experiment [1], the binding result is listed as “binds”.

B2: USP36 (endogenous) (enzyme, UniProt Q9P275 1-1123)
chain: MPIVDKLKEALKPGRKDSADDGELGKLLASSAKKVLLQKIEFEPASKSFSYQLEALKSKYVLLNPKTEGASRHKSGDDPPARRQGSEHTYESCGDGVPAPQKVLFPTERLSLRWERVFRVGAGLHNLGNTCFLNATIQCLTYTPPLANYLLSKEHARSCHQGSFCMLCVMQNHIVQAFANSGNAIKPVSFIRDLKKIARHFRFGNQEDAHEFLRYTIDAMQKACLNGCAKLDRQTQATTLVHQIFGGYLRSRVKCSVCKSVSDTYDPYLDVALEIRQAANIVRALELFVKADVLSGENAYMCAKCKKKVPASKRFTIHRTSNVLTLSLKRFANFSGGKITKDVGYPEFLNIRPYMSQNNGDPVMYGLYAVLVHSGYSCHAGHYYCYVKASNGQWYQMNDSLVHSSNVKVVLNQQAYVLFYLRIPGSKKSPEGLISRTGSSSLPGRPSVIPDHSKKNIGNGIISSPLTGKRQDSGTMKKPHTTEEIGVPISRNGSTLGLKSQNGCIPPKLPSGSPSPKLSQTPTHMPTILDDPGKKVKKPAPPQHFSPRTAQGLPGTSNSNSSRSGSQRQGSWDSRDVVLSTSPKLLATATANGHGLKGNDESAGLDRRGSSSSSPEHSASSDSTKAPQTPRSGAAHLCDSQETNCSTAGHSKTPPSGADSKTVKLKSPVLSNTTTEPASTMSPPPAKKLALSAKKASTLWRATGNDLRPPPPSPSSDLTHPMKTSHPVVASTWPVHRARAVSPAPQSSSRLQPPFSPHPTLLSSTPKPPGTSEPRSCSSISTALPQVNEDLVSLPHQLPEASEPPQSPSEKRKKTFVGEPQRLGSETRLPQHIREATAAPHGKRKRKKKKRPEDTAASALQEGQTQRQPGSPMYRREGQAQLPAVRRQEDGTQPQVNGQQVGCVTDGHHASSRKRRRKGAEGLGEEGGLHQDPLRHSCSPMGDGDPEAMEESPRKKKKKKRKQETQRAVEEDGHLKCPRSAKPQDAVVPESSSCAPSANGWCPGDRMGLSQAPPVSWNGERESDVVQELLKYSSDKAYGRKVLTWDGKMSAVSQDAIEDSRQARTETVVDDWDEEFDRGKEKKIKKFKREKRRNFNAFQKLQTRRNFWSVTHPAKAASLSYRR
As to B2, the binding entry in experiment [2] is on record as “binds”; in experiment [3] it was “no binding”; in experiment [4], “binds”.

B3: Flag-USP36 (enzyme, UniProt Q9P275 1-1123)
chain: MPIVDKLKEALKPGRKDSADDGELGKLLASSAKKVLLQKIEFEPASKSFSYQLEALKSKYVLLNPKTEGASRHKSGDDPPARRQGSEHTYESCGDGVPAPQKVLFPTERLSLRWERVFRVGAGLHNLGNTCFLNATIQCLTYTPPLANYLLSKEHARSCHQGSFCMLCVMQNHIVQAFANSGNAIKPVSFIRDLKKIARHFRFGNQEDAHEFLRYTIDAMQKACLNGCAKLDRQTQATTLVHQIFGGYLRSRVKCSVCKSVSDTYDPYLDVALEIRQAANIVRALELFVKADVLSGENAYMCAKCKKKVPASKRFTIHRTSNVLTLSLKRFANFSGGKITKDVGYPEFLNIRPYMSQNNGDPVMYGLYAVLVHSGYSCHAGHYYCYVKASNGQWYQMNDSLVHSSNVKVVLNQQAYVLFYLRIPGSKKSPEGLISRTGSSSLPGRPSVIPDHSKKNIGNGIISSPLTGKRQDSGTMKKPHTTEEIGVPISRNGSTLGLKSQNGCIPPKLPSGSPSPKLSQTPTHMPTILDDPGKKVKKPAPPQHFSPRTAQGLPGTSNSNSSRSGSQRQGSWDSRDVVLSTSPKLLATATANGHGLKGNDESAGLDRRGSSSSSPEHSASSDSTKAPQTPRSGAAHLCDSQETNCSTAGHSKTPPSGADSKTVKLKSPVLSNTTTEPASTMSPPPAKKLALSAKKASTLWRATGNDLRPPPPSPSSDLTHPMKTSHPVVASTWPVHRARAVSPAPQSSSRLQPPFSPHPTLLSSTPKPPGTSEPRSCSSISTALPQVNEDLVSLPHQLPEASEPPQSPSEKRKKTFVGEPQRLGSETRLPQHIREATAAPHGKRKRKKKKRPEDTAASALQEGQTQRQPGSPMYRREGQAQLPAVRRQEDGTQPQVNGQQVGCVTDGHHASSRKRRRKGAEGLGEEGGLHQDPLRHSCSPMGDGDPEAMEESPRKKKKKKRKQETQRAVEEDGHLKCPRSAKPQDAVVPESSSCAPSANGWCPGDRMGLSQAPPVSWNGERESDVVQELLKYSSDKAYGRKVLTWDGKMSAVSQDAIEDSRQARTETVVDDWDEEFDRGKEKKIKKFKREKRRNFNAFQKLQTRRNFWSVTHPAKAASLSYRR
For B3, the binding result in experiment [5], in experiment [6] and in experiment [7] was “binds” throughout.

B4: Flag-USP36^C131A (enzyme, UniProt Q9P275 1-1123)
chain: MPIVDKLKEALKPGRKDSADDGELGKLLASSAKKVLLQKIEFEPASKSFSYQLEALKSKYVLLNPKTEGASRHKSGDDPPARRQGSEHTYESCGDGVPAPQKVLFPTERLSLRWERVFRVGAGLHNLGNTAFLNATIQCLTYTPPLANYLLSKEHARSCHQGSFCMLCVMQNHIVQAFANSGNAIKPVSFIRDLKKIARHFRFGNQEDAHEFLRYTIDAMQKACLNGCAKLDRQTQATTLVHQIFGGYLRSRVKCSVCKSVSDTYDPYLDVALEIRQAANIVRALELFVKADVLSGENAYMCAKCKKKVPASKRFTIHRTSNVLTLSLKRFANFSGGKITKDVGYPEFLNIRPYMSQNNGDPVMYGLYAVLVHSGYSCHAGHYYCYVKASNGQWYQMNDSLVHSSNVKVVLNQQAYVLFYLRIPGSKKSPEGLISRTGSSSLPGRPSVIPDHSKKNIGNGIISSPLTGKRQDSGTMKKPHTTEEIGVPISRNGSTLGLKSQNGCIPPKLPSGSPSPKLSQTPTHMPTILDDPGKKVKKPAPPQHFSPRTAQGLPGTSNSNSSRSGSQRQGSWDSRDVVLSTSPKLLATATANGHGLKGNDESAGLDRRGSSSSSPEHSASSDSTKAPQTPRSGAAHLCDSQETNCSTAGHSKTPPSGADSKTVKLKSPVLSNTTTEPASTMSPPPAKKLALSAKKASTLWRATGNDLRPPPPSPSSDLTHPMKTSHPVVASTWPVHRARAVSPAPQSSSRLQPPFSPHPTLLSSTPKPPGTSEPRSCSSISTALPQVNEDLVSLPHQLPEASEPPQSPSEKRKKTFVGEPQRLGSETRLPQHIREATAAPHGKRKRKKKKRPEDTAASALQEGQTQRQPGSPMYRREGQAQLPAVRRQEDGTQPQVNGQQVGCVTDGHHASSRKRRRKGAEGLGEEGGLHQDPLRHSCSPMGDGDPEAMEESPRKKKKKKRKQETQRAVEEDGHLKCPRSAKPQDAVVPESSSCAPSANGWCPGDRMGLSQAPPVSWNGERESDVVQELLKYSSDKAYGRKVLTWDGKMSAVSQDAIEDSRQARTETVVDDWDEEFDRGKEKKIKKFKREKRRNFNAFQKLQTRRNFWSVTHPAKAASLSYRR
Take B4: the binding result in experiment [7] is reported as “binds”.
